{"source": "PubChem BioAssay AID1460", "about": "(National Center for Advancing Translational Sciences (NCATS), 2008)", "note": "“And” between values parts separate entries of the source, which are not always exact repeats. Identical values can stand only once. The whole screen tested about 270,000 compounds, of which about 5,800 (2.1%) were called active. This list was built around the results that the source calls inconclusive (neither active nor inactive); the mix of calls is not that of the screen. Calls follow the shape of the dose curve; as a rule, active = well fitted inhibition curve with a large enough effect; inconclusive = small, poorly fitted or top-dose-only effect; inactive = flat fitted curve, though single readings scatter. Where the call is inconclusive, the potency comes from a doubtful curve fit. Potency is read from the fitted curve at half-maximal effect; tags tell the direction and shape of the fitted curve."}
{"molecular_target": "Microtubule-associated protein tau (Homo sapiens) (UniProt P10636)", "sequence (P10636 whole entry, looked up, the tested form may be a part)": "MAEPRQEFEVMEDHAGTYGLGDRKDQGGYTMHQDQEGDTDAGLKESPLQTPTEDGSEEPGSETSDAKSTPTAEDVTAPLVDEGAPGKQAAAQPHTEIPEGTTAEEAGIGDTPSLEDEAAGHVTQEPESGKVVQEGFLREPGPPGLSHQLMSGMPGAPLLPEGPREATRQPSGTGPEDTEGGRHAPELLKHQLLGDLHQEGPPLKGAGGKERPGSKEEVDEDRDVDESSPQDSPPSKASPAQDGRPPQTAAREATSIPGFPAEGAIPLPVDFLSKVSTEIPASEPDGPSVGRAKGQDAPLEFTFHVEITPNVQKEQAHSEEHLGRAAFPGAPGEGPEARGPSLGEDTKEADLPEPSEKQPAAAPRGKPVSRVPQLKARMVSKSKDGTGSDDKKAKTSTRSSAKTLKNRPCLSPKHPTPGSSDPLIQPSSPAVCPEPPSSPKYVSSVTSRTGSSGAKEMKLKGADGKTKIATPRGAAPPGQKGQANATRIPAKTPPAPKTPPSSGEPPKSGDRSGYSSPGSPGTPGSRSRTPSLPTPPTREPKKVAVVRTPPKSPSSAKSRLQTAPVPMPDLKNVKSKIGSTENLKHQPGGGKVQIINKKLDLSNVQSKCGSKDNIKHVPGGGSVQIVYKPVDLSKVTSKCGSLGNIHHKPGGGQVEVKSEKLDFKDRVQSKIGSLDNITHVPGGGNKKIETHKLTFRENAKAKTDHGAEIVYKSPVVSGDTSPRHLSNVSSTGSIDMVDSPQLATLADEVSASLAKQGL", "assay": "qHTS for Inhibitors of Tau Fibril Formation, Thioflavin T Binding; also: nearly all actives have a fitted effect of over 55% in size", "details": "recombinant tau K18 P301L (four-repeat tau fragment), heparin-induced fibrillization, ThT fluorescence; series mostly up to 57.4 µM", "method_in_brief": "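Aggregation was driven by heparin (20 uM final) acting on recombinant tau […] bearing P301L in 100 mM sodium acetate pH 7; fibrils were detected with Thioflavin T.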"}
{"smiles": "CCOc1ccc(C(=O)Nc2ccc(-c3nc4cc(C)ccc4o3)cc2)cc1", "Potency": "inconclusive: 1.58 µM [inhibitor, partial curve]"}
{"smiles": "C=CCNC(=S)N1CCc2c([nH]c3ccccc23)C1C", "note": "(configuration not stated)", "Potency": "inconclusive: 31.6 µM [inhibitor, partial curve, poor fit]"}
{"smiles": "O=C(CNC(=O)c1ccc([N+](=O)[O-])cc1)c1ccccc1", "Potency": "inactive"}
{"smiles": "CCc1ccc(C(=O)CSc2n[nH]c(C)n2)cc1", "Potency": "inactive"}
{"smiles": "O=C1C(Cl)=C(Nc2ccccc2O)C(=O)N1c1ccccc1", "Potency": "active: 14.1 µM"}
{"smiles": "O=C(/C=C/c1ccccc1)CC(O)(c1ccccc1)C(F)(F)C(F)F", "note": "(configuration not stated)", "Potency": "inconclusive: 25.1 µM [inhibitor, partial curve]"}
{"smiles": "COc1ccc(NC(=O)CSc2nnc(-c3ccccc3)n2N)cc1", "Potency": "inconclusive: 25.1 µM [inhibitor, single point]"}
{"smiles": "CCN(CC)CCCNC(=O)C1CCN(S(C)(=O)=O)CC1", "Potency": "inactive"}
{"smiles": "COc1ccc(Nc2nc(Nc3ccc(OC)cc3)nc(-n3[nH]c(=O)c(C)c3C)n2)cc1", "Potency": "inconclusive: 14.1 µM [inhibitor, partial curve]"}
{"smiles": "Cc1cccc(N2CCN(S(=O)(=O)c3ccc4oc(=O)c5ncn(C)c5c4c3)CC2)c1C", "Potency": "inactive"}
{"smiles": "O=C(CCCCn1c(=O)c2ccccc2n(CC(=O)Nc2ccccc2)c1=O)NCc1ccccc1Cl", "Potency": "inconclusive: 15.8 µM [activator, partial curve, poor fit]"}
{"smiles": "COc1ccccc1/C=N\\Nc1ccccc1[N+](=O)[O-]", "Potency": "inconclusive: 3.98 µM [inhibitor, full curve]"}
{"smiles": "COC(=O)C1=C(C(=O)OC)SC(=C2C(=S)C(C)(C)N(C(=O)CC(C)C)c3ccccc32)S1", "Potency": "active: 1.12 µM"}
{"smiles": "O=c1oc2c(-c3ccc([N+](=O)[O-])cc3)cc(O)cc2s1", "Potency": "inconclusive: 3.16 µM [inhibitor, full curve]"}
{"smiles": "Cc1n[nH]c(C)c1CCc1nc2c3ccccc3nc(SCC(=O)Nc3ccc(F)cc3)n2n1", "Potency": "inconclusive: 7.94 µM [inhibitor, full curve, poor fit]"}
{"smiles": "CC(C)(O)[C@@H]1CCC[N+]2(C)CCCC[C@H]12", "note": "(some centres not stated)", "Potency": "inactive"}
{"smiles": "CCCCN(C)C1=CC2=CC(=C(C#N)C#N)CCC2CC1", "note": "(configuration not stated)", "Potency": "inconclusive: 3.98 µM [activator, full curve]"}
{"smiles": "CCN(CC)c1ccc(/C=N/OC(C)C(=O)Nc2ccc(C)cc2)cc1", "note": "(configuration not stated)", "Potency": "inconclusive: 17.8 µM [inhibitor, partial curve]"}
{"smiles": "Cc1cccc(C)c1OCc1n[nH]c(=S)n1-c1ccccc1", "Potency": "inactive"}
{"smiles": "CCN(CC)C(=O)CCCOc1ccc(Cl)cc1Cl", "Potency": "inactive"}
{"smiles": "CCc1cccc(CC)c1NC(=S)NCCc1ccc(O)c(O)c1", "Potency": "inconclusive: 11.2 µM [inhibitor, partial curve]"}
{"smiles": "CCN1CCN(c2cc(C)c3cc(NC(=O)c4cccc(Cl)c4)ccc3n2)CC1", "Potency": "inconclusive: 8.91 µM [inhibitor, partial curve]"}
{"smiles": "O=C(Oc1ccccc1Cl)c1cc(-c2ccc3c(c2)OCCO3)on1", "Potency": "inconclusive: 44.7 µM [activator, single point]"}
{"smiles": "O=C(NC(=S)Nc1cc([N+](=O)[O-])ccc1Cl)c1ccccc1", "Potency": "inconclusive: 1.58 µM [inhibitor, full curve, poor fit]"}
{"smiles": "COC/C=C/C1=CC2=CC(=O)C(C)(OC(=O)c3cnc4ccccc4n3)C(=O)C2=CN1Cc1ccc(OC)cc1", "note": "(configuration not stated)", "Potency": "active: 12.6 µM"}
{"smiles": "Cc1ccc(C(=S)NCS(=O)(=O)c2ccc(C)cc2)cc1", "Potency": "inconclusive: 15.8 µM [inhibitor, single point]"}
{"smiles": "CCC(C)c1c(O)nc(SCC(=O)Nc2ccccc2)[nH]c1=O", "note": "(configuration not stated)", "Potency": "inconclusive: 22.4 µM [inhibitor, partial curve]"}
{"smiles": "CCCC(=O)C1=C(c2ccc(C)cc2)N(C(=O)CCC)n2cnnc2S1", "Potency": "active: 15.8 µM"}
{"smiles": "CCCC(=O)Nc1ccc2c(c1)c1ccccc1n2CC", "Potency": "inconclusive: 11.2 µM [inhibitor, partial curve]"}
{"smiles": "O=C(Nc1nnc(S(=O)(=O)N2CCCCC2)s1)c1ccc(F)cc1", "Potency": "active: 4.47 µM"}
{"smiles": "CC(=O)c1coc2c1cc(O)c1ccccc12", "Potency": "inconclusive: 6.31 µM [inhibitor, full curve]"}
{"smiles": "CC(/C=N/n1c(COc2ccccc2)n[nH]c1=S)=C\\c1ccco1", "Potency": "inconclusive: 12.6 µM [inhibitor, partial curve, poor fit]"}
{"smiles": "CCc1sc(C(=O)Nc2cccc(C(C)=O)c2)cc1C", "Potency": "inconclusive: 15.8 µM [inhibitor, partial curve, poor fit]"}
{"smiles": "NNC(=O)c1ccc(COc2cccc3ccccc23)cc1", "Potency": "inconclusive: 12.6 µM [inhibitor, partial curve]"}
{"smiles": "COc1ccc(NC(=O)COc2ccc(S(=O)(=O)NC3CCCCC3)cc2)c(OC)c1", "Potency": "inactive"}
{"smiles": "COC(=O)n1c(=O)oc2ccc(S(=O)(=O)N3CCCCC3)cc21", "Potency": "inconclusive: 44.7 µM [inhibitor, single point]"}
{"smiles": "CCOc1ccc(C(=O)Cc2ccc3oc(C(=O)O)cc3c2)c(O)c1", "Potency": "inactive"}
{"smiles": "c1ccc(CN2c3ccccc3-c3nc4ccccc4n3C2c2ccccn2)cc1", "note": "(configuration not stated)", "Potency": "inconclusive: 14.1 µM [inhibitor, partial curve]"}
{"smiles": "O=c1[nH][nH]c2cc(=O)n(-c3cccc(C(F)(F)F)c3)nc12", "Potency": "inconclusive: 17.8 µM [inhibitor, partial curve]"}
{"smiles": "Cc1ccc(-c2nc(COC(=O)c3c(C)noc3C)cs2)cc1", "Potency": "inconclusive: 17.8 µM [inhibitor, partial curve]"}
{"smiles": "COc1ccc(NC(=O)c2cc(-c3ccccc3)oc2C)cc1", "Potency": "inconclusive: 44.7 µM [inhibitor, single point]"}
{"smiles": "Cc1ccc(CNC(=O)Cn2cc(S(=O)(=O)Cc3cccc(Cl)c3)c3ccccc32)cc1", "Potency": "inactive"}
{"smiles": "CC1=C(C(=O)N2CCCCC2)C(c2cccc(Cl)c2)n2c(nc3ccccc32)N1", "note": "(configuration not stated)", "Potency": "inactive"}
{"smiles": "COc1ccc(-c2nnc(SCC(=O)c3ccc(C)o3)o2)cc1", "Potency": "inconclusive: 14.1 µM [inhibitor, partial curve]"}
{"smiles": "CCC(=O)Nc1ccc2c(c1)C(=O)N(C)C2=O", "Potency": "inactive"}
{"smiles": "CCOC(=O)c1cnc(-n2nc(C)cc2C)nc1NNc1nc(C)cc(C)n1", "Potency": "inactive"}
{"smiles": "COC(=O)c1ccc(N/C=C/C(=O)c2ccc(OC)c(OC)c2)cc1", "Potency": "inconclusive: 0.631 µM [inhibitor, partial curve]"}
{"smiles": "Cc1ccc(-n2nnnc2SCC(=O)c2cc(C)n(-c3cc(C)on3)c2C)c(C)c1", "Potency": "inactive"}
{"smiles": "Cc1cc(C(=O)NC(=S)Nc2ccccc2N2CCOCC2)ccc1[N+](=O)[O-]", "Potency": "inactive"}
{"smiles": "COC(=O)c1ccccc1NC(=O)c1cc2c(s1)-c1ccccc1OC2", "Potency": "inconclusive: 6.31 µM [inhibitor, partial curve]"}
{"smiles": "Cc1nc2ccccc2c(=O)n1/N=C/c1ccc([N+](=O)[O-])o1", "Potency": "active: 28.2 µM"}
{"smiles": "Cc1ccc(C)c(NS(=O)(=O)c2ccc3[nH]c(=O)oc3c2)c1", "Potency": "inactive"}
{"smiles": "CCOc1ccc(CCNC(=O)c2ccc3c(c2)N(Cc2ccccc2)C(=O)c2ccccc2S3=O)cc1OCC", "note": "(configuration not stated)", "Potency": "inactive"}
{"smiles": "CC(C)(Oc1ccc(Cl)cc1)C(=O)Nc1ccc2oc(-c3ccncc3)nc2c1", "Potency": "inconclusive: 1.78 µM [inhibitor, full curve, poor fit]"}
{"smiles": "Cc1cc(C)cc(OCC(=O)Nc2ccc3c(c2)C(=O)c2ccccc2C3=O)c1", "Potency": "inconclusive: 6.31 µM [inhibitor, partial curve]"}
{"smiles": "COc1cccc(NC(=O)CCSc2ccc3ccccc3n2)c1", "Potency": "inconclusive: 3.55 µM [inhibitor, partial curve]"}
{"smiles": "Cc1ccc(N2CCN(C(=O)c3ccccc3Br)CC2)c(C)c1", "Potency": "inconclusive: 20 µM [inhibitor, single point]"}
{"smiles": "COc1ccc(N(C)C(=O)CCS(=O)(=O)c2cccc3nonc23)c(OC)c1", "Potency": "inactive"}
{"smiles": "Cc1ccc(CC2C(=O)N(c3nc(C)cc(C)n3)C(=O)C2C)cc1", "note": "(configuration not stated)", "Potency": "inactive"}
{"smiles": "Cc1cccc(C)c1NC(=S)N(CCN(C)C)C(C)c1cccnc1", "note": "(configuration not stated)", "Potency": "inactive"}
{"smiles": "O=C1C(Cl)=C(NCCCO)C(=O)c2ccccc21", "Potency": "inconclusive: 17.8 µM [inhibitor, partial curve]"}
{"smiles": "c1ccc(NCc2nc3ccccc3n2CCOc2ccccc2)cc1", "Potency": "inactive"}
{"smiles": "COc1ccc(N2CCN(C(=O)c3ccc4c(=O)n(CCc5ccc(OC)c(OC)c5)c(=O)[nH]c4c3)CC2)cc1", "Potency": "inconclusive: 10 µM [inhibitor, partial curve]"}
{"smiles": "CC[C@H]1C(c2cccc(C)c2)=NN(c2ccccc2)[C@@H]1CO", "Potency": "inconclusive: 35.5 µM [inhibitor, partial curve]"}
{"smiles": "COc1cc(/C=C/C(=O)OCC(=O)Nc2ccc(S(N)(=O)=O)cc2)ccc1O", "Potency": "inconclusive: 8.91 µM [inhibitor, full curve, poor fit]"}
{"smiles": "COc1ccc(-c2cn3c(n2)sc2cc(C(=O)NCCCN4CCCCC4)ccc23)cc1", "Potency": "inconclusive: 15.8 µM [inhibitor, partial curve]"}
{"smiles": "Cc1c(/C=C/C(=O)c2ccc(Cl)s2)cnn1C", "Potency": "inconclusive: 20 µM [inhibitor, single point]"}
{"smiles": "c1ccc2c(c1)Nc1nccnc1S2", "Potency": "inconclusive: 22.4 µM [inhibitor, single point]"}
{"smiles": "S=C(c1ccc2c(c1)OCO2)N1CCCCCC1", "Potency": "inconclusive: 25.1 µM [inhibitor, partial curve]"}
{"smiles": "Cc1ccccc1-c1cc(Nc2ccc(F)cc2)ncn1", "Potency": "inactive"}
{"smiles": "Cc1ccccc1C1=NC(c2ccc(F)cc2F)ON1", "note": "(configuration not stated)", "Potency": "inconclusive: 35.5 µM [inhibitor, partial curve]"}
{"smiles": "CC/C(=C(/CC)c1ccc(O)cc1)c1ccc(O)cc1", "Potency": "inconclusive: 17.8 µM [inhibitor, single point] and inconclusive: 39.8 µM [inhibitor, partial curve, poor fit]"}
